# Experimental data: patent publication US20230257475A1
# Biological target: human CD19, CD20 and CD22 on CD19+CD20+CD22+ tri-positive B lymphoma cells (Raji, Daudi) (human) (UniProt P15391)
# Experiment: flow cytometry on Raji cells (CD19+CD20+CD22+), serial dilution of the mAb, detection with PE-conjugated mouse anti-human IgG1Fc, MFI
row,Binder,EC50 [nM]
1,huAIO-467-huIgG1Fc mAb (Fc fusion) QVQLQESGPGLVKPSQTLSLTCTVSGASITTGEFYWNWFRQPPGKGLEWMGAIAASGSTTYSPSFESRTSISRDTSKNQFSLKLSSVTAADTAVYYCGRSFGVAAVTTGQNRGQGTLVTVSSGGGGSQVQLVESGGGLVQPGGSLRLSCAASGNINSRNCMGWFRQAPGKGREGVAAIGQVTGRSYYVDSVKGRFTISLDNSKNTLYLQMNSLRAEDTAVYYCAAAPGCLLSALRSADYRNWGQGTLVTVSSGGGGSQIQLVESGGGLVQPGGSLRLSCAASGFTFSNYPMTWLRQAPGKGLESVSDITSGGDRPYYADSVKGRFTISRDNAKNMLYLQMNSLRAEDTAVYYCATWDRTLTGQGTMVTVSS[in this place human IgG1 Fc],94.5
2,AIO-3C1-huIgG1Fc mAb (Fc fusion) VHH-VHH-VHH-Fc chain: EVQLVESGPGLVKPSQTLSLTCTVSGASITTGEFYWNWFRQPPGKGLEWMGAIAASGSTTYSPSFESRTSISRDTSENQFYLQLSSVTPEDTAVYYCGRSFGVAAVTTGQNRGQGTQVTVSSGGGGSQVQLVESGGGSVQAGGSLRLSCGASGNINSRNCMGWFRQAPGKEREGVAAIGQVTGRSYYVDSVKGRFTISLDNAKNTLYLQMNTLKPEDTAMYYCAAAPGCLLSALRSADYRNWGQGTQVTVSSGGGGSQIQLVESGGGLVQPGGSLRLSCAASGFTFSNYPMTWLRQAPGKGLESVSDITSGGDRPYYADSVKGRFTISRDNAKNMLYLEMNSLKTEDTAVYYCATWDRTLTGQGTQVTVSS[in this place human IgG1 Fc],88.2
